Test results from PubChem BioAssay (Tox21).
Inconclusive means that the source gave no clear call. Such entries were picked first, then a sample of the others. A potency beside an inconclusive call is a rough fit, not a confirmed value. Calls of active or inactive are those of the source. Calls come from the whole dose curve; as a rule, active = well fitted curve in the direction sought with a large enough effect in the repeat runs; inconclusive = weak or mixed curves; inactive = no such curve, though single readings can be large; an effect the other way counts as inactive or inconclusive.

Columns and labels:
[1] = qHTS RealTime-Glo MT Cell Viability Assay in HEK293 cells - 32 hour (AID 1224868); settings: RealTime-Glo luminescence; series mostly up to 76.8 µM; note: nearly all actives have a fitted effect of over 50% in size
Procedure, shortened: (§1)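 Viability tracked continuously by luminescence as live cells reduce a prosubstrate for NanoLuc; HEK293 cells preincubated 5 h, compound-treated at 37 C, and read at 0, 8, 16, 24, 32 and 40 h.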

[2] = qHTS RealTime-Glo MT Cell Viability Assay in HEK293 cells - 16 hour (AID 1224872); settings: RealTime-Glo luminescence; series mostly up to 76.8 µM; note: nearly all actives have a fitted effect of over 50% in size
Procedure, shortened: as §1

[3] = qHTS RealTime-Glo MT Cell Viability Assay in HEK293 cells - 40 hour (AID 1224874); settings: RealTime-Glo luminescence; max response: stronger effect = lower value; note: nearly all actives have a fitted effect of over 50% in size
Procedure, shortened: (§2)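 Measured as luminescence from the same continuously cultured HEK293 wells at successive time points (0, 8, 16, 24, 32, 40 h) after compound addition. Reagent present from seeding; dosing at 5 h; incubation 37 C.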

[4] = A CellTox Green Cytotoxicity Assay to monitor cytotoxicity in HepG2 cells - 16 hour (AID 1224876); settings: CellTox Green fluorescence; series mostly up to 76.8 µM; note: nearly all actives have a fitted effect of over 45% in size
Procedure, shortened: (§3)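 Fluorescent DNA-binding dye, 600 HepG2 cells/well, 5 h preincubation then compound in DMSO; same plates read at 0–40 h, 37 C.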

[5] = A CellTox Green Cytotoxicity Assay to monitor cytotoxicity in HepG2 cells - 24 hour (AID 1224878); settings: CellTox Green fluorescence; series mostly up to 76.8 µM; note: nearly all actives have a fitted effect of over 45% in size
Procedure, shortened: as §3

[6] = A CellTox Green Cytotoxicity Assay to monitor cytotoxicity in HepG2 cells - 40 hour (AID 1224879); settings: CellTox Green fluorescence; series mostly up to 76.8 µM; note: nearly all actives have a fitted effect of over 40% in size
Procedure, shortened: as §3

[7] = A CellTox Green Cytotoxicity Assay to monitor cytotoxicity in HEK293 cells - 40 hour (AID 1224871); settings: CellTox Green fluorescence; series mostly up to 76.8 µM; note: nearly all actives have a fitted effect of over 45% in size
Procedure, shortened: (§4)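 Homogeneous no-lysis format: HEK293 cell suspension mixed with CellTox Green reagent, seeded, incubated 5 h at 37 C/5% CO2, then dosed by pintool with compound in DMSO.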

[8] = A CellTox Green Cytotoxicity Assay to monitor cytotoxicity in HEK293 cells - 32 hour (AID 1224881); settings: CellTox Green fluorescence; series mostly up to 76.8 µM; note: nearly all actives have a fitted effect of over 40% in size
Procedure, shortened: as §4

[9] = qHTS RealTime-Glo MT Cell Viability Assay in HepG2 cells - 8 hour (AID 1224873); settings: RealTime-Glo luminescence; series mostly up to 76.8 µM; note: nearly all actives have a fitted effect of over 55% in size
Procedure, shortened: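 HepG2 cells (600/well) mixed with RealTime-Glo MT reagent, settled 5 h at 37 C/5% CO2 before compound addition. Nonlytic NanoLuc luminescence from viable-cell prosubstrate reduction read repeatedly during 40 h treatment at 37 C.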

[10] = qHTS RealTime-Glo MT Cell Viability Assay in HEK293 cells - 0 hour (AID 1224880); settings: RealTime-Glo luminescence; series mostly up to 76.8 µM; note: nearly all actives have a fitted effect of over 45% in size
Procedure, shortened: as §2

[11] = A CellTox Green Cytotoxicity Assay to monitor cytotoxicity in HEK293 cells - 24 hour (AID 1224875); settings: CellTox Green fluorescence; series mostly up to 76.8 µM; note: nearly all actives have a fitted effect of over 45% in size
Procedure, shortened: as §4
Potency is the fitted concentration of half-maximal effect; tags give direction and shape of the fitted curve.

O=C(CS)Nc1ccccc1
Potency [1]: inactive

CC(C)(N=C=O)c1cccc(C(C)(C)N=C=O)c1
Potency [1]: inconclusive: 38.6 µM [cytotoxic, partial curve]
Potency [2]: inconclusive: 34.4 µM [cytotoxic, partial curve]
Potency [3]: inconclusive: 30.7 µM [cytotoxic, partial curve]

CCCCN1CCCC1C(=O)Nc1c(C)cc(C)cc1C (stereo unspecified)
Potency [1]: inconclusive: 21.3 µM [cytotoxic, partial curve]
Potency [2]: inconclusive: 23.9 µM [cytotoxic, partial curve, poor fit]
Potency [3]: inconclusive: 26.8 µM [cytotoxic, partial curve, poor fit]
Potency [4]: inconclusive: 23.9 µM [activator, single point]
Potency [5]: inconclusive: 23.9 µM [activator, single point]
Potency [6]: inconclusive: 26.8 µM [activator, single point]

O=C(C(=O)c1ccco1)c1ccco1
Potency [1]: inconclusive: 44 µM [rising, partial curve]
Potency [2]: inconclusive: 39.2 µM [rising, partial curve]
Potency [3]: inconclusive: 44 µM [rising, partial curve]

Cc1nc2ccccc2c(=O)o1
Potency [1]: inactive
Potency [7]: inconclusive: 12.4 µM [activator, single point]
Potency [8]: inconclusive: 12.4 µM [activator, single point]

CC(=O)OCCN(CCOC(C)=O)c1ccc(N=Nc2ccc([N+](=O)[O-])cc2C#N)cc1
Potency [1]: inconclusive: 21.9 µM [cytotoxic, single point]
Potency [2]: inconclusive: 21.9 µM [cytotoxic, single point]
Potency [9]: inconclusive: 43.6 µM [falling, partial curve, poor fit]
Potency [3]: inconclusive: 24.5 µM [cytotoxic, single point]
Potency [10]: inconclusive: 21.9 µM [falling, single point]

CCc1oc2ccccc2c1C(=O)c1cc(Br)c(O)c(Br)c1
Potency [1]: inconclusive: 21.3 µM [cytotoxic, partial curve]
Potency [2]: inconclusive: 23.9 µM [cytotoxic, partial curve, poor fit]
Potency [3]: inconclusive: 21.3 µM [cytotoxic, partial curve]

C=C(C)C(=O)OCCCCCCCCCC
Potency [1]: inactive
Potency [7]: inconclusive: 7.82 µM [activator, single point]
Potency [11]: inconclusive: 7.82 µM [activator, single point]
Potency [8]: inconclusive: 7.82 µM [activator, single point]

C=CCOC(=O)c1ccccc1C(=O)OCC=C
Potency [1]: inconclusive: 21.9 µM [cytotoxic, single point]
Potency [2]: inconclusive: 21.9 µM [cytotoxic, single point]
Potency [6]: inconclusive: 43 µM [activator, partial curve, poor fit]

CC(=O)OCCC(C)CC(C)(C)C (stereo unspecified)
Potency [1]: inconclusive: 54.9 µM [cytotoxic, partial curve, poor fit]
Potency [7]: inconclusive: 49 µM [activator, single point]
Potency [3]: inconclusive: 54.9 µM [cytotoxic, single point]
Potency [6]: inactive

Oc1ccc(Cc2ccccc2O)cc1
Potency [1]: inconclusive: 13.8 µM [cytotoxic, partial curve]
Potency [2]: inconclusive: 19.7 µM [cytotoxic, partial curve]
Potency [4]: inactive
Potency [6]: inactive

CC(COc1ccc(C(C)(C)C)cc1)OS(=O)OCCCl (stereo unspecified)
Potency [1]: inconclusive: 0.348 µM [cytotoxic, full curve, poor fit]
Potency [2]: inconclusive: 0.439 µM [cytotoxic, full curve, poor fit]
Potency [3]: active: 0.391 µM
Potency [11]: inactive

CN(C)C(=O)Nc1ccc(Oc2ccc(Cl)cc2)cc1
Potency [1]: active: 38.9 µM
Potency [2]: inconclusive: 34.7 µM [cytotoxic, partial curve]
Potency [11]: inactive
Potency [5]: inconclusive: 49 µM [activator, single point]
Potency [6]: inconclusive: 54.9 µM [activator, single point]

COC(=O)Nc1nc2ccc(C(=O)C3CC3)cc2[nH]1
Potency [1]: inconclusive: 2.39 µM [cytotoxic, full curve]
Potency [2]: inconclusive: 1.69 µM [cytotoxic, partial curve, poor fit]
Potency [3]: inconclusive: 2.13 µM [cytotoxic, full curve]
